Here are results for 23 compounds from ChEMBL document CHEMBL4888484, “Replenishing the malaria drug discovery pipeline: Screening and hit evaluation of the MMV Hit Generation Library 1 (HGL1) against asexual blood stage Plasmodium falciparum ,using a nano luciferase reporter read-out” (2022).

Out of some 150,000 compounds screened, about 540 (0.36%) showed an effect of 50% or more. The list shows a part of the results.

In the test the test system is Plasmodium falciparum. As to the kind of experiment: Primary screen in NF54 nanoGlo assay, in single point, at 2uM, 72h; a lower Z score goes with more inhibition. The test is classed as functional, Erythrocyte. The settings on record: timepoint 72 hour.
One may read the % Inhibition as the relative decrease from the control value, in per cent. With `Cc1ccc2c(c1)c(CNC(=O)[C@@H]1CC=CCC1)nn2C`, the “% Inhibition” value is -10% and the Z score is given as 1.25.
For `CCc1cnc(CN(C)S(=O)(=O)c2cc(Cl)cnc2N)s1` the same measures were -6% and 0.96.
The matching figures for `COCCN(C(C)=O)c1nc(CN2Cc3c[nH]nc3[C@@H](C)C2)cs1`: 2% and -0.26.
As to `CC(C)c1noc([C@H](C)N2CCc3[nH]c4ccccc4c3C2)n1`, the “% Inhibition” value turned out to be 3% and the Z score was -0.41.
For `COc1ccc(CC(=O)Nc2cc(-c3nc4cccnc4s3)ccc2C)cc1OC` the same measures were 0% and 0.05.
On to `O=C(c1cccnc1)N1CCC2(CC1)CN(C(=O)c1ccccc1)C[C@@H]2c1ncco1`, for which the “% Inhibition” value is listed as -10% and the Z score was determined as 1.44.
The matching figures for `CCn1ccnc1CN1CCOc2c(O)cc(-c3ccc(Cl)cn3)cc2C1`: -5% and 0.94.
`Cc1ccc(OCC(=O)N2CCC(c3nc4ccccc4o3)CC2)cc1C`: the “% Inhibition” value is recorded as -18% and the Z score was 1.61.
For `Cc1cc(C(=O)N2CCOCC2(C)C)c(C)n1Cc1ccccn1` the same measures were -40% and 4.65.
Take `C=CCNC(=O)C[C@@H]1CCN(S(=O)(=O)c2ccccc2)C[C@@H]1CC`: the “% Inhibition” value is 33% and the Z score was -3.78.
The matching figures for `CCc1nsc(NCCCc2nc(C)no2)n1`: -8% and 1.49.
Consider `COCc1nc([C@H]2CCOC2)cc(N2CCN(Cc3nccn3C)CC2)n1`, for which the “% Inhibition” value is -19% and the Z score stood at 2.52.
Consider `CC[C@@H](CO)NCc1cccc(OC)c1OC`, for which the “% Inhibition” value came to 1% and the Z score is -0.16.
For `CCC1CN(C(=O)C(C)C)CCC1NCc1ccc(OC)c(C#N)c1` (stereo unspecified), the “% Inhibition” value was -7% and the Z score worked out at 0.9.
For `Clc1cccc(Cl)c1Cc1n[nH]c(CCCn2cccn2)n1` the same measures were -14% and 1.86.
On to `O=C(Cn1nnnc1CN1CCCC1)N1CCN(c2ccc(F)cc2)CC1`, for which the “% Inhibition” value is on record as -11% and the Z score is given as 1.62.
Consider `Cc1cnc(C(=O)NC2C[C@H]3CC[C@@H](C2)N3C(=O)CCC2CCCC2)cn1` (stereo partly specified), for which the “% Inhibition” value worked out at 6% and the Z score is -0.98.
For `COc1ccc(C(F)(F)C(=O)Nc2cnns2)cc1` the same measures were -11% and 1.77.
For `Cc1nc(CN(C(=O)c2onc3c2CCCC3)C(C)C)no1` the same measures were -13% and 1.59.
Take `COc1ccc(C(=O)N2CCc3ccc(C(=O)NCc4ccc5c(c4)OCO5)cc32)cc1`: the “% Inhibition” value is listed as -7% and the Z score is reported as 0.84.
The matching figures for `CCCCn1nc(C2CCCC2)nc1[C@@H]1COCCO1`: -8% and 1.09.
`Cc1noc(C)c1NC(=O)N[C@@H](C)Cc1ccsc1`: the “% Inhibition” value is on record as -17% and the Z score is 1.83.
Regarding `CCOc1ccccc1CNS(=O)(=O)c1cc(-c2nc(C)cs2)n(CC(=O)N2CCCC2)c1`, the “% Inhibition” value was 9% and the Z score is on record as -1.04.
